From PubChem BioAssay AID485294 (National Center for Advancing Translational Sciences (NCATS), 2010)
Screen size: about 370,000 compounds; about 150 (0.041%) were called active. The shares of active, inactive and inconclusive entries below differ from those in the screen. The call rests on the fitted dose curve; in most records, active means well fitted inhibition curve with a large enough effect; inconclusive means small, poorly fitted or top-dose-only effect; inactive means flat fitted curve, though single readings scatter. No potency is given beside an inconclusive call; the fits are too rough.

Biological target: Beta-lactamase (Escherichia coli (strain K12)) (UniProt P00811)
Chain of UniProt P00811 (P00811 whole entry, looked up): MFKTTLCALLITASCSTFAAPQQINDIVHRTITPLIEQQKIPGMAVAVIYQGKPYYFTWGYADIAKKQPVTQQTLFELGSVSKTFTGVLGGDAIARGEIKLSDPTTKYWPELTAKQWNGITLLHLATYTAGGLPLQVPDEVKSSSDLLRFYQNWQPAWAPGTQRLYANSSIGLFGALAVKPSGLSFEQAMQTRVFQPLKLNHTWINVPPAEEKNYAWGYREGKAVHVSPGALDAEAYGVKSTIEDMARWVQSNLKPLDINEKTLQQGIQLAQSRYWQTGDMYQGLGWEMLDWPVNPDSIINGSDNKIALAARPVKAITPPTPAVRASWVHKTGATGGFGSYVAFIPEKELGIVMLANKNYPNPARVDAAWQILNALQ
Test: qHTS Inhibitors of AmpC Beta-Lactamase (assay with detergent); further: nearly all actives have a fitted effect of over 25% in size;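 on activity change, negative = inhibition: 0% = no-compound wells and -100% = no-enzyme wells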
Settings: AmpC hydrolysis of nitrocefin, absorbance 480 nm, 0.01% Triton; activity change, negative = inhibition: at 114 µM (top of the series)
Summary of the method: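 AmpC (5.3 nM in the dispensed reagent) in 20 mM phosphate pH 7.0 with 0.01% (detergent screen) or 0.0001% Triton X-100 was preincubated with compounds for 15 min at room temperature. Nitrocefin was then added from an 800 uM solution, and hydrolysis was followed at 480 nm.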
Potency means the concentration at half of the fitted maximal effect; tags describe the fitted curve by direction and shape.

**Q.** For `CCCn1ncc2c(Nc3ccc(C)c(C)c3)ncnc21`, which Potency is on record?
**A.** inconclusive [inhibitor, partial curve]

**Q.** How did the “activity change, negative = inhibition” value turn out when `COc1ccc(NCC(=O)N/N=C/c2cc([N+](=O)[O-])ccc2N2CCCC2)cc1` was run?
**A.** inactive: -11.7%

**Q.** Which Potency does the source give for `O=S(=O)(c1cccs1)N1CCN(CC(O)COc2cccc(Br)c2)CC1` (centres undefined) here?
**A.** inconclusive [inhibitor, single point]

**Q.** How did the Potency turn out when `Cc1c(C(=O)OCc2ccccc2)nnn1-c1nonc1N` was run?
**A.** inconclusive [inhibitor, partial curve]

**Q.** Which Potency does the source give for `Cc1csc(SCC(=O)NC(=O)NC(C)C)n1` here?
**A.** inconclusive [inhibitor, partial curve, poor fit]

**Q.** `CCOC(=O)N1CCN(Cc2nc(N)nc(Nc3ccc(Oc4ccccc4)cc3)n2)CC1` was tested. Which Potency did it give?
**A.** inconclusive [inhibitor, full curve, poor fit]

**Q.** Which Potency does the source give for `COc1ccccc1C(=O)N/N=C(\C)CC(=O)Nc1ccccc1NC(C)=O` here?
**A.** inconclusive [inhibitor, partial curve, poor fit]

**Q.** How did the “activity change, negative = inhibition” value turn out when `Clc1ccc(SCc2cn3ccsc3n2)cc1` was run?
**A.** inactive: -13.8%

**Q.** For `CCC1(c2ccccc2)NC(=O)N(CC(=O)Nc2ccccc2N2CCCC2)C1=O` (centres undefined), which Potency is on record?
**A.** inconclusive [inhibitor, partial curve, poor fit]

**Q.** Which Potency does the source give for `Cn1c(=S)ccc2ccccc21` here?
**A.** inconclusive [inhibitor, partial curve]

**Q.** With `CN1CCN(S(=O)(=O)c2ccc(Nc3ccc(F)cc3)nc2)CC1` as the compound, how does the Potency read?
**A.** inconclusive [inhibitor, full curve, poor fit]

**Q.** `COCCCNC(=O)C1CCN(c2nc3ccc(Cl)cc3[nH]2)CC1` was tested. Which “activity change, negative = inhibition” value did it give?
**A.** inactive: 19.1%

**Q.** With `CCCN1CCN(CCCNC(=O)Cn2cc3c(n2)CCCC3)CC1` as the compound, how does the Potency read?
**A.** inconclusive [inhibitor, full curve]

**Q.** `O=C(Nc1cccc(-c2cccc(Cl)c2)c1)C1CCN(Cc2ccc(CO)o2)CC1` was tested. Which Potency did it give?
**A.** inconclusive [inhibitor, full curve, poor fit]

**Q.** With `Cc1cc(OC(C)C(=O)N2C[C@H]3C[C@@H](C2)c2cccc(=O)n2C3)c2c(C)c(C)c(=O)oc2c1` (some centres undefined) as the compound, how does the Potency read?
**A.** inconclusive [inhibitor, full curve, poor fit]

**Q.** For `CCOCCCNC(=S)N1CCN(c2nc(-c3ccccc3)cs2)CC1`, which Potency is on record?
**A.** inconclusive [inhibitor, full curve]

**Q.** `O=C1CCN(Cc2ccc(Br)cc2)CCN1CCO` was tested. Which Potency did it give?
**A.** inconclusive [inhibitor, partial curve]

**Q.** For `CCCCN(CC)C(=O)Cn1ncc2c1-c1cc(C)ccc1OC2`, which Potency is on record?
**A.** inconclusive [inhibitor, full curve, poor fit]

**Q.** How did the Potency turn out when `CC(=O)c1sc(N/N=C\c2ccc(Br)cc2)nc1C` was run?
**A.** inconclusive [inhibitor, full curve, poor fit]

**Q.** `Cc1ccc(C(=O)NC(C)c2ccc(-n3ccnc3)cc2)cc1S(=O)(=O)N1CCOCC1` (centres undefined) was tested. Which “activity change, negative = inhibition” value did it give?
**A.** inactive: 0%

**Q.** For `O=C(Nc1ccc(Cl)cn1)c1cccnc1`, which Potency is on record?
**A.** inconclusive [inhibitor, partial curve]

**Q.** How did the Potency turn out when `COc1ccc(NC(=O)CSc2ccccn2)cc1` was run?
**A.** inconclusive [inhibitor, single point]

**Q.** With `CCN(CC)S(=O)(=O)c1ccc(OC)c(NC(=O)c2cc(C)on2)c1` as the compound, how does the “activity change, negative = inhibition” value read?
**A.** inactive: 1.26%

**Q.** For `CCOC(=O)CN(C(=O)CCC(=O)Nc1cc(C)on1)C(C(=O)NC1CCCC1)c1cccnc1` (centres undefined), which Potency is on record?
**A.** inconclusive [inhibitor, full curve, poor fit]

**Q.** With `CCN(CC)C(=O)CSc1ncnc2c(-c3cccs3)nsc12` as the compound, how does the Potency read?
**A.** inconclusive [inhibitor, full curve, poor fit]

**Q.** For `CCOc1ccc(Cn2nnc(C(=O)Nc3cc(C)cc(C)c3)c2N)cc1`, which Potency is on record?
**A.** inconclusive [inhibitor, partial curve]

**Q.** For `CCCn1c(N)c(Sc2ccc(C)cc2)c(=O)n(CCC)c1=O`, which “activity change, negative = inhibition” value is on record?
**A.** inactive: 2.55%

**Q.** How did the Potency turn out when `S=C=Nc1cccc(C2(N3CCCCC3)CCCCC2)c1` was run?
**A.** inconclusive [inhibitor, full curve, poor fit]

**Q.** How did the “activity change, negative = inhibition” value turn out when `CC(C)c1ccc(/C=C/C(=O)Nc2nncs2)cc1` was run?
**A.** inactive: -12%

**Q.** Which Potency does the source give for `CN1C(=O)CCC(CCC(=O)O)(c2ccccc2O)C1=O` (centres undefined) here?
**A.** inconclusive [inhibitor, partial curve]

**Q.** With `O=C(CSc1ccc2nnc(-c3ccc(Cl)cc3)n2n1)N1CCCC1` as the compound, how does the Potency read?
**A.** inconclusive [inhibitor, full curve]

**Q.** With `CC(C)c1[nH]nc2c1C(c1cccs1)C(C#N)=C(N)O2` (centres undefined) as the compound, how does the Potency read?
**A.** inconclusive [inhibitor, full curve, poor fit]

**Q.** For `CC1CCCCN1S(=O)(=O)c1cnc(Cl)c(Br)c1` (centres undefined), which Potency is on record?
**A.** inconclusive [inhibitor, full curve, poor fit]

**Q.** With `COc1cc(SC)ccc1C(=O)OCc1nc2ccsc2c(=O)[nH]1` as the compound, how does the Potency read?
**A.** inconclusive [inhibitor, partial curve, poor fit]

**Q.** `COCCCNc1oc(-c2ccccc2OC)nc1C#N` was tested. Which “activity change, negative = inhibition” value did it give?
**A.** inactive: -4.74%

**Q.** With `Cn1c(CN2CCOCC2)nc2cc(NC(=O)c3ccccc3Cl)ccc21` as the compound, how does the Potency read?
**A.** inconclusive [inhibitor, full curve]

**Q.** How did the Potency turn out when `S=c1nc(-c2cccc(Cl)c2)[nH][nH]1` was run?
**A.** inconclusive [inhibitor, partial curve]

**Q.** For `Cc1ccc(S(=O)(=O)NC2(C(F)(F)F)NC(=O)N(c3ccccc3F)C2=O)cc1` (centres undefined), which Potency is on record?
**A.** inconclusive [inhibitor, full curve, poor fit]

**Q.** For `COc1ccc(/C(C)=N/NC(=O)c2cc(-c3cccnc3)nc3ccccc23)cc1`, which Potency is on record?
**A.** inconclusive [inhibitor, full curve]

**Q.** How did the Potency turn out when `CC(=O)c1cccc(OCc2cc(C(=O)NC(C)Cc3cccnc3)no2)c1` (centres undefined) was run?
**A.** inconclusive [inhibitor, partial curve]

**Q.** How did the “activity change, negative = inhibition” value turn out when `CCS(=O)(=O)n1nc(-c2ccc(C)cc2)nc1N` was run?
**A.** inactive: -12.3%

**Q.** With `CN1CCN(C(=O)C2(NC(=O)Nc3ccccc3Cl)CCCCC2)CC1` as the compound, how does the Potency read?
**A.** inconclusive [inhibitor, full curve]

**Q.** `CCOCCCNC(=O)Cc1ccc(F)cc1` was tested. Which Potency did it give?
**A.** inconclusive [inhibitor, full curve, poor fit]

**Q.** `O=C(NCCS(=O)(=O)N1CCN(c2ccccc2F)CC1)C1CC(=O)N(c2ccc(F)cc2)C1` (centres undefined) was tested. Which Potency did it give?
**A.** inconclusive [inhibitor, full curve, poor fit]

**Q.** How did the Potency turn out when `CCc1nnc(NC(=O)c2cc([N+](=O)[O-])ccc2N2CCOCC2)s1` was run?
**A.** inconclusive [inhibitor, full curve, poor fit]

**Q.** `O=S(=O)(NCCCN1CCOCC1)c1ccc(F)c(Cl)c1` was tested. Which Potency did it give?
**A.** inconclusive [inhibitor, full curve, poor fit]

**Q.** For `Brc1cccc2sc(N3CCCC3)nc12`, which “activity change, negative = inhibition” value is on record?
**A.** inactive: 0.627%

**Q.** For `CCOc1ccc(S(=O)(=O)N2CCCC(C(=O)NCCN3CCOCC3)C2)cc1Cl` (centres undefined), which “activity change, negative = inhibition” value is on record?
**A.** inactive: 0.23%

**Q.** For `Cc1cc(NC(=O)C(C)SCC(=O)OCC(=O)Nc2c(C)cccc2C(C)C)no1` (centres undefined), which Potency is on record?
**A.** inconclusive [inhibitor, partial curve, poor fit]

**Q.** For `COCCNC(=S)N1CCN(c2nc(-c3ccc(Cl)cc3)cs2)CC1`, which “activity change, negative = inhibition” value is on record?
**A.** inactive: -7.81%

**Q.** With `Cc1cc(C(=O)NCc2ccccc2)c2c(C)nn(-c3cccc(Cl)c3C)c2n1` as the compound, how does the “activity change, negative = inhibition” value read?
**A.** inactive: 9.8%

**Q.** With `Cc1ccc(C(=O)N/C(=C\c2ccc(-c3ccc(Cl)cc3)o2)C(=O)NCCCN(C)C)cc1` as the compound, how does the Potency read?
**A.** inconclusive [inhibitor, partial curve]

**Q.** For `O=C(NCC1CCCO1)C1CCC(CNS(=O)(=O)c2ccccc2)CC1` (centres undefined), which Potency is on record?
**A.** inconclusive [inhibitor, partial curve]

**Q.** `CC(=O)N[C@@H](C)C(=O)OC(C)C(=O)Nc1cccc([N+](=O)[O-])c1` (some centres undefined) was tested. Which Potency did it give?
**A.** inconclusive [inhibitor, partial curve]

**Q.** For `CCCCn1c(CNC(=O)C23CC4CC(CC(C4)C2)C3)nnc1SCC(=O)Nc1ccc(F)cc1`, which “activity change, negative = inhibition” value is on record?
**A.** inactive: 12.6%

**Q.** `CCN(CC)C(=O)Cn1nc(C)c2ccccc2c1=O` was tested. Which Potency did it give?
**A.** inconclusive [inhibitor, full curve]

**Q.** Which “activity change, negative = inhibition” value does the source give for `O=C(CN1C(=O)c2cccnc2Oc2ccc(Cl)cc21)NCCCc1ccccc1` here?
**A.** inactive: -4.73%

**Q.** With `CCc1nnc(NS(=O)(=O)c2ccc(NC(=O)c3cccc(Cl)c3)cc2)s1` as the compound, how does the Potency read?
**A.** inconclusive [inhibitor, single point]

**Q.** For `COc1ccccc1-c1nnc(NC(=O)C2=COCCO2)o1`, which Potency is on record?
**A.** inconclusive [inhibitor, partial curve]

**Q.** `CCS(=O)(=O)Nc1ccc(C(=O)NCCSc2ccccc2)cc1` was tested. Which Potency did it give?
**A.** inconclusive [inhibitor, full curve, poor fit]

**Q.** For `COc1ccccc1N(CC(=O)N(C)Cc1ccccc1)S(=O)(=O)c1cccs1`, which “activity change, negative = inhibition” value is on record?
**A.** inactive: -0.303%

**Q.** With `COCCn1c(SCC(=O)NCC2CCCO2)nc2c(c1=O)SC(C)C2` (centres undefined) as the compound, how does the Potency read?
**A.** inconclusive [inhibitor, full curve]

**Q.** `Cc1ccc(-c2csc(NC(=O)c3c(C)noc3C)n2)cc1` was tested. Which “activity change, negative = inhibition” value did it give?
**A.** inactive: -5.58%

**Q.** With `Cc1ccc(-c2nn(-c3ccccc3)cc2C(=O)O)o1` as the compound, how does the “activity change, negative = inhibition” value read?
**A.** inactive: -4.52%

**Q.** With `O=C(Nc1ccc2c(c1)OCO2)c1ccc(N2C(=O)c3ccccc3C2=O)cc1` as the compound, how does the Potency read?
**A.** inconclusive [inhibitor, full curve]

**Q.** How did the Potency turn out when `O=c1c2ccccc2nc2ccc(NCc3cccs3)nn12` was run?
**A.** inconclusive [inhibitor, single point]

**Q.** Which “activity change, negative = inhibition” value does the source give for `O=S(=O)(c1ccc(F)cc1)c1snnc1-c1ccccc1` here?
**A.** inactive: 2.44%

**Q.** Which Potency does the source give for `O=C(Nc1ccccc1)N(c1ccccc1)C1C=CS(=O)(=O)C1` (centres undefined) here?
**A.** inconclusive [inhibitor, full curve, poor fit]

**Q.** For `Cc1ccc(C)c(N2CCN(CCCNC(=O)Cn3cc4c(n3)CCC(C)C4)CC2)c1` (centres undefined), which Potency is on record?
**A.** inconclusive [inhibitor, full curve, poor fit]
